Experimental data from patent publication US20110124877A1, “5-BENZYL-4-AZOLYLMETHYL-4-SPIRO[2.4]HEPTANOL DERIVATIVES, METHODS FOR PRODUCING THE SAME, AND AGRO-HORTICULTURAL AGENTS AND INDUSTRIAL MATERIAL PROTECTING AGENTS THEREOF” (KUREHA CORPORATION, priority 2008, published 2011).
Some results were stated once for a whole list of compounds, not compound by compound. Some compounds share one range, which may span the group rather than tell each member.

Experiments:
[1] = tested on: Cladosporium microorganism (Cladosporium sp.); test: Antimicroorganism effect, mycelial extension on PDA plate; format: cell-based; details: PDA plate medium, 50 mg/l, 1 to 3 days
[2] = tested on: Aureobasidium microorganism (Aureobasidium sp.); test: as above; format: cell-based; details: PDA plate medium, 50 mg/l, 1 to 3 days
[3] = tested on: cucumber fusarium wilt microorganism (Fusarium oxysporum); test: as above; format: cell-based; details: PDA plate medium, 50 mg/l, 1 to 3 days
[4] = tested on: ricesheath blight microorganism (Rhizoctonia solani); test: as above; format: cell-based; details: PDA plate medium, 50 mg/l, 1 to 3 days
[5] = tested on: sugar beet cercospora leaf spot microorganism (Cercospora beticola); test: as above; format: cell-based; details: PDA plate medium, 50 mg/l, 1 to 3 days
[6] = tested on: Mucor microorganism (Mucor sp.); test: as above; format: cell-based; details: PDA plate medium, 50 mg/l, 1 to 3 days
[7] = tested on: barley loose smut microorganism (Ustilago nuda); test: as above; format: cell-based; details: PDA plate medium, 50 mg/l, 1 to 3 days
wheat powdery mildew = test: Wheat powdery mildew preventing effect by seed treatment; format: in vivo, Erysiphe graminis f. sp tritici; details: 2 mg compound per 1 g wheat seeds, 7, 14, 28 and 56 days after seeding, stems and leaves
[8] = tested on: sclerotinia rot microorganism (Sclerotinia sclerotiorum); test: Antimicroorganism effect, mycelial extension on PDA plate; format: cell-based; details: PDA plate medium, 50 mg/l, 1 to 3 days
[9] = tested on: wheat stagonospora blotch microorganism (Phaeosphaeria nodorum); test: as above; format: cell-based; details: PDA plate medium, 50 mg/l, 1 to 3 days
[10] = tested on: anthracnose microorganism (Glomerella cingulata); test: as above; format: cell-based; details: PDA plate medium, 50 mg/l, 1 to 3 days
[11] = tested on: barley stripe microorganism (Pyrenophora graminea); test: as above; format: cell-based; details: PDA plate medium, 50 mg/l, 1 to 3 days
[12] = tested on: citrous blue mold microorganism (Penicillium italicum); test: as above; format: cell-based; details: PDA plate medium, 50 mg/l, 1 to 3 days
rice plant = test: Rice growth regulation assay; format: in vivo; details: seed treatment, 36 mg compound per 180 g rice seeds, plant height 20 days after seeding
[13] = tested on: wood denaturing microorganism (Coriolus versicolor); test: Antimicroorganism effect, mycelial extension on PDA plate; format: cell-based; details: PDA plate medium, 50 mg/l, 1 to 3 days
[14] = tested on: Aspergillus microorganism (Aspergillus sp.); test: as above; format: cell-based; details: PDA plate medium, 50 mg/l, 1 to 3 days
[15] = tested on: penicillium microorganism (Penicillium sp.); test: as above; format: cell-based; details: PDA plate medium, 50 mg/l, 1 to 3 days
[16] = tested on: barley scald microorganism (Rhynchosporium secalis); test: as above; format: cell-based; details: PDA plate medium, 50 mg/l, 1 to 3 days
[17] = tested on: rice bakanae disease microorganism (Giberella fujikuroi); test: as above; format: cell-based; details: PDA plate medium, 50 mg/l, 1 to 3 days
[18] = tested on: wheat powdery mildew microorganism; test: Wheat powdery mildew preventing effect assay; format: in vivo, Erysiphe graminis f. sp tritici; details: wheat two-leaf phase, 500 mg/L sprayed at 1,000 L/ha, 14 days after inoculation
[19] = tested on: wheat leaf rust microorganism; test: Wheat leaf rust preventing effect assay; format: in vivo, Puccinia recondita; details: wheat two-leaf phase, 500 mg/L sprayed at 1,000 L/ha, 9 to 14 days after inoculation
[20] = tested on: rice seedling blight microorganism (Rhizopus) (Rhizopus oryzae); test: Antimicroorganism effect, mycelial extension on PDA plate; format: cell-based; details: PDA plate medium, 50 mg/l, 1 to 3 days
[21] = tested on: cucumber gray mold microorganism; test: Cucumber gray mold preventing effect assay; format: in vivo, Botrytis cinerea; details: cucumber cotyledon phase, wettable formulation 500 mg/L sprayed at 1,000 L/ha, 4 days after inoculation
Method: The sprayed leaves were air-dried, and loaded with a paper disc (8 mm in diameter) soaked with a spore suspension of a cucumber gray mold microorganism, and kept at 20 degrees C. and a high humidity. 4 Days after inoculation, the cucumber gray mold severity was investigated, and the protective value was calculated by the following equation. [table]

[22] = tested on: gray mold microorganism (Botritis cinerea); test: Antimicroorganism effect, mycelial extension on PDA plate; format: cell-based; details: PDA plate medium, 50 mg/l, 1 to 3 days
[23] = tested on: wheat septoria bloth microorganism (Septoria tritici); test: as above; format: cell-based; details: PDA plate medium, 50 mg/l, 1 to 3 days
[24] = tested on: wood denaturing microorganism (Tyromyces palustris); test: as above; format: cell-based; details: PDA plate medium, 50 mg/l, 1 to 3 days
[25] = tested on: Tricoderma microorganism (Trichoderma sp.); test: as above; format: cell-based; details: PDA plate medium, 50 mg/l, 1 to 3 days
[26] = tested on: wheat eye spot microorganism (Pseudocercosporella herpotrichoides); test: as above; format: cell-based; details: PDA plate medium, 50 mg/l, 1 to 3 days
[27] = tested on: Curvularia microorganism (Curvularia sp.); test: as above; format: cell-based; details: PDA plate medium, 50 mg/l, 1 to 3 days
[28] = tested on: wheat take-all microorganism (Gaeumannomyces graminis); test: as above; format: cell-based; details: PDA plate medium, 50 mg/l, 1 to 3 days
[29] = tested on: wheat pink snow mold microorganism (Microdochium nivale); test: as above; format: cell-based; details: PDA plate medium, 50 mg/l, 1 to 3 days
[30] = tested on: apple alternaria blotch microorganism (Alternaria alternata); test: as above; format: cell-based; details: PDA plate medium, 50 mg/l, 1 to 3 days

Compound: OC1(Cn2cncn2)C(Cc2ccc(F)cc2)CCC12CC2 (single isomer, unassigned) [Compound I-8, 5-(4-fluorobenzyl)-4-(1H-1,2,4-triazol-1-ylmethyl)-4-spiro[2.4]heptanol]
- growth inhibition grade [1]: 5 (% Mycerial extension inhibition of 90% or higher)
- growth inhibition grade [2]: 4 (% Mycerial extension inhibition of less than 90 to 70% or higher)
- growth inhibition grade [3]: 5 (% Mycerial extension inhibition of 90% or higher)
- growth inhibition grade [4]: 4 (% Mycerial extension inhibition of less than 90 to 70% or higher)
- growth inhibition grade [5]: 5 (% Mycerial extension inhibition of 90% or higher)
- growth inhibition grade [6]: 4 (% Mycerial extension inhibition of less than 90 to 70% or higher)
- growth inhibition grade [7]: 4 (% Mycerial extension inhibition of less than 90 to 70% or higher)
- Powdery mildew controlling index (wheat powdery mildew): 4 (Protective value of 61 to 80)
- growth inhibition grade [8]: 5 (% Mycerial extension inhibition of 90% or higher)
- growth inhibition grade [9]: 5 (% Mycerial extension inhibition of 90% or higher)
- growth inhibition grade [10]: 5 (% Mycerial extension inhibition of 90% or higher)
- growth inhibition grade [11]: 5 (% Mycerial extension inhibition of 90% or higher)
- growth inhibition grade [12]: 5 (% Mycerial extension inhibition of 90% or higher)
- growth regulation grade (rice plant): 4 (% Plant height suppression of less than 50 to 30% or higher)
- growth inhibition grade [13]: 5 (% Mycerial extension inhibition of 90% or higher)
- growth inhibition grade [14]: 5 (% Mycerial extension inhibition of 90% or higher)
- growth inhibition grade [15]: 5 (% Mycerial extension inhibition of 90% or higher)
- growth inhibition grade [16]: 5 (% Mycerial extension inhibition of 90% or higher)
- growth inhibition grade [17]: 5 (% Mycerial extension inhibition of 90% or higher)
- protective value [18]: ≥ 80%
- protective value [19]: ≥ 80%
- growth inhibition grade [20]: 4 (% Mycerial extension inhibition of less than 90 to 70% or higher)
- protective value [21]: ≥ 80%
- growth inhibition grade [22]: 5 (% Mycerial extension inhibition of 90% or higher)
- growth inhibition grade [23]: 5 (% Mycerial extension inhibition of 90% or higher)
- growth inhibition grade [24]: 5 (% Mycerial extension inhibition of 90% or higher)
- growth inhibition grade [25]: 5 (% Mycerial extension inhibition of 90% or higher)
- growth inhibition grade [26]: 5 (% Mycerial extension inhibition of 90% or higher)
- growth inhibition grade [27]: 4 (% Mycerial extension inhibition of less than 90 to 70% or higher)
- growth inhibition grade [28]: 5 (% Mycerial extension inhibition of 90% or higher)
- growth inhibition grade [29]: 4 (% Mycerial extension inhibition of less than 90 to 70% or higher)
- growth inhibition grade [30]: 4 (% Mycerial extension inhibition of less than 90 to 70% or higher)
